Test results from PubChem BioAssay AID1159614 (National Center for Advancing Translational Sciences (NCATS), 2016).
Out of some 45,000 compounds screened, about 65 (0.1%) were called active. Calls follow the shape of the dose curve; as a rule, active = well fitted activation curve with a large enough effect; inconclusive = small, poorly fitted or top-dose-only effect; inactive = no such curve, though single readings can be large or run the other way. The list shows a part of the results.

These compounds were tested against Galactocerebrosidase (Homo sapiens) (UniProt P54803) (assay: A Novel Cell-Based Assay to Identify Small Molecules for B -Galactocerebrosidase). Details: 145M-Twi-hGALC-G270D cells (Twitcher mouse brain line with human GALC G270D), HMU-beta-Gal fluorescence, 48 h; series mostly up to 57.5 µM; activation: at the top concentration.
How it was run: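 Fluorogenic HMU-b-Gal hydrolysis (0.1 mM final, pH 5.2 citrate-phosphate with 1 mg/mL sodium taurocholate; carbonate stop buffer) measures mutant GALC activity after compound treatment of live 145M-Twi Twitcher brain cells stably carrying human GALC-G270D, with wild-type GALC line alongside; activation sought.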
Also: 0% is about no effect; nearly all actives have a fitted effect of over 65% in size.

UniProt P54803, sequence (P54803 whole entry, looked up): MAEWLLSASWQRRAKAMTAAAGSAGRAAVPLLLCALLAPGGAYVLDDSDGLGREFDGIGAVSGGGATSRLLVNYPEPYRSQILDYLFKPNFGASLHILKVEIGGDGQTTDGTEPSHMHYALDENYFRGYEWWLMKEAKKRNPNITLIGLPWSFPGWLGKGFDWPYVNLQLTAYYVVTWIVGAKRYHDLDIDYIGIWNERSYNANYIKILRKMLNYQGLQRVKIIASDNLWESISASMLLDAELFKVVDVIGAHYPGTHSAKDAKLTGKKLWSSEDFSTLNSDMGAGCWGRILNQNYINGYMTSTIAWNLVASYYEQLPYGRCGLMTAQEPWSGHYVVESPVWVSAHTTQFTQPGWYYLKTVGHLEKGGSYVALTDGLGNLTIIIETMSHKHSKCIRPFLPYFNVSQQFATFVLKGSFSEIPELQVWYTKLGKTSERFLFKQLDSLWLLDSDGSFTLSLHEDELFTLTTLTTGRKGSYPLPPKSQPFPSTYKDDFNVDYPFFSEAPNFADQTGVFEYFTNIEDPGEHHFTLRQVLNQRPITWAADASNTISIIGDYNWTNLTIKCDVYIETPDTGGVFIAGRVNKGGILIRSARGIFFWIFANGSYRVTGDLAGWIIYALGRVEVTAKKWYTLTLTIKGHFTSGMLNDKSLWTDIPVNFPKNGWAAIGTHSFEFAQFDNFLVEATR

SMILES	activation
COc1ccc(CNC(=O)CCn2c(=O)c3cccn3c3ccc(F)cc32)cc1OC	inactive: -10.4%
CCN1C(=O)c2ccccc2S(=O)(=O)c2ccc(C(=O)NCc3ccc(C)cc3)cc21	inactive: -7.97%
CC(C)c1ccc(NC(=O)C2CCC(CNS(=O)(=O)c3ccc4c(c3)CCCC(=O)N4)CC2)cc1 (stereo unspecified)	inactive: -0.185%
CCn1nc(C)c(CCN(C)C(=O)Nc2cc(Cl)c(OC)cc2OC)c1C	inactive: -12.5%
CCN(Cc1ccccc1)C(=O)Cn1c(=O)cc(C)c2c(C)nn(-c3cccc(F)c3)c21	inactive: -6.45%
CC(C)c1nn2c(=O)cc(COC(=O)c3cccc(NC(=O)CCc4ccccc4)c3)nc2s1	inactive: -6.25%
O=C(CSc1oc(-c2ccc(F)cc2)nc1S(=O)(=O)c1ccccc1)c1ccc(Cl)cc1	inactive: -12.6%
CCc1ccc2nc(N(Cc3cccnc3)C(=O)Cc3ccccc3)sc2c1	inactive: -25.9%
COc1ccc(Cc2c(C)nn(-c3nc(C)c(C(=O)Nc4cccc(C(C)=O)c4)s3)c2C)cc1	inactive: -8.67%
COc1ccc(-c2ccc(=O)n(CC(=O)Nc3ccc(Br)cc3F)n2)cc1	inactive: -6%
CCOC(=O)c1[nH]c(C)c(CCC(=O)N2CCN(c3ccc(Cl)cc3)CC2)c1C	inactive: -9.52%
CCS(=O)(=O)c1nc(S(=O)(=O)c2ccc(Cl)cc2)c(NCc2ccc(Cl)cc2)s1	inactive: -8.8%
O=C(O)c1ccc(Nc2ncnc3scc(-c4ccccc4)c23)cc1	inactive: 8.77%
Cn1c(=O)c2c(-c3ccccc3)n(-c3cccc(C#N)c3)cc2n(C)c1=O	inactive: -17.4%
COC(=O)c1cc(OC)c(OC)cc1NC(=O)c1ccc2c(c1)CCN2S(C)(=O)=O	inactive: -24.6%
Cc1ccc2c(c1)N(C(=O)c1ccc(F)cc1)C(C)(C)CC2(C)c1ccccc1 (stereo unspecified)	inactive: -11.8%
O=C(NCc1ccccc1)c1c2c(nc3ccccc13)C(=O)N(C1CCCCC1)C2	inactive: -9.28%
CCc1ccccc1N1C(=O)N(Cc2cc(=O)n3ccccc3n2)c2ccccc2S1(=O)=O	inactive: -14.7%
Cc1cc2c(OCC(CNC(C)(C)C)OC(=O)c3ccccc3)cccc2[nH]1 (stereo unspecified)	inactive: -12.5%
CCC(C(=O)NCc1ccccc1Cl)n1c(=O)c2cccn2c2ccccc21 (stereo unspecified)	inactive: -4.49%
Cc1cc2oc(C(=O)Nc3sc4c(c3C(=O)NCC3CCCO3)CCCC4)cc(=O)c2cc1C (stereo unspecified)	inactive: -8.44%
COC(=O)c1ccc2c(c1)N(CC(=O)Nc1ccc(C)c(C)c1)C(=O)c1ccccc1S2	inactive: -16.7%
CCS(=O)(=O)N1CCc2cc(C(=O)Nc3cc(C)cc(C)c3)ccc21	inactive: -26.2%
Cc1ccc(C)c(N2CCN(C(=O)NCc3noc4ccccc34)CC2)c1	inactive: -9.6%

SMILES	activation
COc1ccc(CCNC(=O)c2ccc3[nH]c(C)c(C)c3c2)cc1OC	inactive: -17.8%
O=S(=O)(NCC(c1ccco1)N1CCN(c2ccc(F)cc2)CC1)c1cc(F)ccc1F (stereo unspecified)	inactive: 5.54%
CCCCN(CC)CCNC(=O)CN1C(=O)COc2ccc(S(=O)(=O)N3CCOCC3)cc21	inactive: -4.11%
COc1ccc(OC)c(CCNc2nc3cc(OC)c(OC)cc3c3nc(-c4cccnc4)nn23)c1	inactive: 3.46%
Cn1c(=O)c2c(-c3ccc(Cl)cc3)ccnc2n(C)c1=O	inactive: -8.96%
Cc1ccc(C(=O)c2cn(Cc3ccccc3)c3c(F)cc(F)cc3c2=O)cc1	inactive: -10.9%
O=C(Nc1ccccc1)c1ccc(Cl)c(S(=O)(=O)Nc2ccccc2)c1	inactive: -1.75%
CCS(=O)(=O)N1CCC2(CC1)OC(=O)C(C)=C2C(=O)NCc1ccc(OC)c(OC)c1	inactive: -7.63%
CCOc1ccccc1CNC(=O)CN1C(=O)c2cccnc2Oc2ccc(Cl)cc21	inactive: -5.04%
COc1ccc(S(=O)(=O)N2CCCCC2)cc1C(=O)NC1CCS(=O)(=O)C1 (stereo unspecified)	inactive: -11.6%
Cn1c(=O)c(=O)n(C)c2cc(N3CCCC3)c(NC(=O)c3ccccc3Cl)cc21	inactive: -12.1%
COc1ccc2nc(N(Cc3cccnc3)C(=O)c3ccc(Cl)cc3)sc2c1	inactive: -9.74%
COc1ccc(N2CCN(C(=O)c3cn(C)c4ccc(S(=O)(=O)N5CCOCC5)cc4c3=O)CC2)cc1	inactive: -16.2%
CCC1Oc2ccccc2N(CC(=O)NCc2ccccc2)C1=O (stereo unspecified)	inactive: -10.1%
Cc1cc(Nc2cccc(Cl)c2)nc2ccc(NC(=O)Cc3c(F)cccc3Cl)cc12	inactive: -7.06%
COc1ccc(-c2noc(CC(=O)N(C)c3cc(Cl)c(OC)cc3OC)n2)cc1	inactive: -11.8%
CCCCN(C)C(=O)c1ccc2c(c1)NC(=O)C(CC(C)C)N2 (stereo unspecified)	inactive: -0.258%
COc1ccc(OC)c(NC(=O)N2CCC3(CC2)Oc2ccccc2C(=O)N3Cc2ccccc2F)c1	inactive: -9.26%
CCN1C(=O)C2(c3ccccc31)c1c(oc3ccccc3c1=O)C(=O)N2CCOC (stereo unspecified)	inactive: -12.9%
CCOc1ccccc1CNC(=O)CN1C(=O)c2cccnc2Oc2ccc(C)cc21	inactive: -26.8%
O=C(Nc1ccc(Br)cc1)c1cc(S(=O)(=O)N2CCc3ccccc32)ccc1F	inactive: -33.7%
CCn1c(=O)c2sccc2n2c(CCCC(=O)Nc3ccc(Oc4ccccc4)cc3)nnc12	inactive: -6.06%
NCC(=O)CCC(=O)O	inactive: -15.4%
Cc1ccc(S(=O)(=O)c2nnn3c2nc(NC2CCCCC2)c2sccc23)cc1C	inactive: -16%

SMILES	activation
CN(Cc1ccccc1)c1nc2c(S(=O)(=O)c3ccccc3)nnn2c2ccsc12	inactive: -15.9%
Cc1ccc(OCCSc2nc3ccccc3n2CCC(=O)O)cc1	inactive: 10.3%
Cc1ccc(-c2nc(-c3cccs3)c(-c3cccs3)[nH]2)cc1	inactive: -8.88%
Cc1cc(C)cc(OCC(=O)N(Cc2ccco2)Cc2ccccc2Cl)c1	inactive: -10.2%
Cc1c(C(=O)Nc2ccccc2F)sc2nc3n(c(=O)c12)CCC3	inactive: -20.7%
Cc1ccc(NC(=O)c2nc(S(C)(=O)=O)ncc2N(Cc2ccco2)Cc2ccco2)cc1	inactive: -8.85%
CCCCN(CC)CCCNC(=O)c1nn(-c2ccc(OC)cc2)c(=O)c2c1c1ccccc1n2C	inactive: 1.43%
CNC(=O)C1CCC(Cn2c(=O)c3sccc3n(CC(=O)Nc3ccccc3)c2=O)CC1 (stereo unspecified)	inactive: -4.75%
O=C(Nc1ncc(Cc2ccccc2Cl)s1)c1ccc2c(c1)CC(c1ccccc1)OC2=O (stereo unspecified)	inactive: -6.13%
Cc1ccc(NC(=O)Cn2c(=O)n(CC(=O)NCCc3ccccc3)c(=O)c3ccccc32)cc1	inactive: -5.74%
CC1CCc2nc3ncn(Cc4cccc(F)c4)c(=O)c3cc2C1 (stereo unspecified)	inactive: -10.1%
COc1ccc(C)cc1-n1c(SCC(=O)NCc2ccco2)nc2c([nH]c3ccccc32)c1=O	inactive: 2.67%
COc1ccc(CNC(=O)CCc2c(C)nc3c4cccnc4nn3c2C)cc1	inactive: -21.9%
CCc1ccccc1NC(=O)Cn1nnc(C(=O)NCc2cccc(OC)c2)c1N	inactive: -8.73%
COc1ccc(CC(=O)Nc2nnc3n2CCS3)cc1OC	inactive: 14.6%
COCCNC(=O)c1cc(-c2cccc(Cl)c2)on1	inactive: -15%
Cc1ccc(CCNC(=O)CCCn2c(=O)c3cccn3c3ccc(F)cc32)cc1	inactive: -1.71%
CCCCN(CC)CCCNC(=O)c1sc2nc3n(c(=O)c2c1C)CCCCC3	inactive: -13.8%
COc1ccc(-n2c(CCC(=O)O)ccc2-c2ccccc2)cc1	inactive: -1.92%
CCC(=O)N1CCc2cc(Br)cc(S(=O)(=O)N3CCCC(C(=O)Nc4ccc(CC)cc4)C3)c21 (stereo unspecified)	inactive: 1.13%
CCOC(=O)c1cccc(NC(=O)Cc2ccc(NC(=O)N3CCCCc4ccccc43)cc2)c1	inactive: -9.32%
CC(=O)c1cccc(NC(=O)Cn2cnc3c2c(=O)n(C)c(=O)n3C)c1	inactive: -19.6%
COc1ccccc1Cn1c(CNS(=O)(=O)c2ccc(Cl)s2)nc2cccnc21	inactive: -4.81%
CCOc1ccccc1CNS(=O)(=O)c1cnc(N)nc1	inactive: -3.06%

SMILES	activation
COC(=O)CCc1ccc(OCC(O)CNC(C)C)cc1 (stereo unspecified)	inactive: -5.59%
CCOC(=O)c1[nH]c(C)c(CCC(=O)N2CCN(c3cc(Cl)ccc3C)CC2)c1C	inactive: -10.4%
O=C(Nc1ccccc1C(=O)OCc1cc(=O)n2c3c(sc2n1)CCCC3)c1ccc(Cl)cc1	inactive: -9.25%
Cc1nnc(N2CCN(c3ccccc3)CC2)c2c1nnn2Cc1ccc(F)cc1	inactive: -7.86%
Cc1ccc(C)c(NC(=O)CCn2cnnn2)c1	inactive: -3.4%
O=C1Nc2c(c(=O)[nH]c(=O)n2-c2ccc(Cl)cc2)C1(NS(=O)(=O)c1ccccc1)C(F)(F)F (stereo unspecified)	inactive: -30.4%
CCOC(=O)c1c(C)[nH]c(C)c1S(=O)(=O)N1CCCC(C(=O)N2CCN(c3ccc(Cl)cc3)CC2)C1 (stereo unspecified)	inactive: -15.5%
O=C(Nc1ccc(F)cc1F)c1ccc(-c2ccccc2)s1	inactive: -5.77%
CCCCOC(=O)c1ccc(NC(=O)c2ccc3c(c2)CCN3S(=O)(=O)c2ccccc2)cc1	inactive: -12.2%
COc1ccc(C2CC(=O)c3cc(-c4nc(-c5cccc([N+](=O)[O-])c5)cs4)c(=O)n(-c4cc(C)cc(C)c4)c3C2)cc1 (stereo unspecified)	inactive: -2.98%
CCOC(=O)CSc1nc2sc3c(c2c(=O)n1CC)CCCC3	inactive: -22.9%
Cn1c(=O)c2c(-c3ccccc3Br)n(C(C)(C)C)cc2n(C)c1=O	inactive: -14.5%
Cc1cnc2c(c1SCC(=O)N(C)c1ccccc1)c(=O)n(C)c(=O)n2C	inactive: -12.1%
CCCC(=O)Nc1ccc2nn(-c3ccc(CC)cc3)nc2c1	inactive: -5.2%
O=C(CCCn1c(=O)c2sccc2n(Cc2c(F)cccc2Cl)c1=O)NCc1ccccc1	inactive: -2.93%
Cc1ccc2nc(CSc3nnc(NC(=O)COc4ccccc4F)s3)cc(=O)n2c1	inactive: -0.44%
Nc1c(C(=O)c2ccc3c(c2)OCO3)sc(Nc2ccccc2F)c1S(=O)(=O)c1ccccc1	inactive: -10.2%
COc1ccc(C)cc1N(CC(=O)N1CCC(C)CC1)S(=O)(=O)c1ccc(C)cc1	inactive: -19.9%
Cc1c(-c2nc(-c3ccc4c(c3)[nH]c(=O)n4C)no2)cccc1[N+](=O)[O-]	inactive: -5.7%
CC1(C)CC(=O)c2cc(-c3nc(-c4ccc(Br)cc4)cs3)c(=O)n(-c3ccccc3)c2C1	inactive: 14.9%
O=C(c1cnc(N2CCOCC2)c2ccccc12)N1CCN(c2ccc(F)cc2)CC1	inactive: 0.241%
Cc1cccc(-c2noc(CN(C(C)C)S(=O)(=O)c3ccc(Br)cc3)n2)c1	inactive: 1.56%
Cc1ccc(N2CCN(Cc3nnc(-c4ccc5c(c4)OCO5)o3)CC2)c(C)c1	inactive: -8.77%
Cc1cc(C)cc(NC(=O)CSCc2cc(=O)c3cc(Cl)ccc3[nH]2)c1	inactive: -3.25%
